Some of the results follow.
B1: PhoQ; a variant is named by its letters at X, in order, P23837 (parent)
chain: MKKLLRLFFPLSLRVRFLLATAAVVLVLSLAYGMVALIGYSVSFDKTTFRLLRGESNLFYTLAKWENNKLHVELPENIDKQSPTMTLIYDENGQLLWAQRDVPWLMKMIQPDWLKSNGFHEIEADVNDTSLLLSGDHSIQQQLQEVREDDDDAEMTHSVAVNVYPATSRMPKLTIVVVDTIPVELKSSYMVWSWFIYVLSANLLLVIPLLWVAAWWSLRPIEALAKEVRELEEHNRELLNPATTRELTSLVRNLNRLLKSERERYDKYRTTLTDLTHSLKTPLXXLQXXLRSLRSEKMSVSDAEPVMLEQISRISQQIGYYLHRASMRGGTLLSRELHPVAPLLDNLTSALNKVYQRKGVNISLDISPEISFVGEQNDFVEVMGNVLDNACKYCLEFVEISARQTDEHLYIVVEDDGPGIPLSKREVIFDRGQRVDTLRPGQGVGLAVAREITEQYEGKIVAGESMLGGARMEVIFGRQHSAPKDE

Variants of: B1
Assay: enrichment ratio after two sorts for PhoP signalling (ratio (wild type AVST 3.29)); higher = more functional
Conditions: with PhoP (E. coli)

Row | Variant | enrichment ratio
1 | IKKS | ≤ 0.25
2 | RANG | ≤ 0.25
3 | RLYQ | ≤ 0.25
4 | ICFH | ≤ 0.25
5 | DWMQ | ≤ 0.25
6 | YPHL | ≤ 0.25
7 | RHAA | ≤ 0.25
8 | VLLS | ≤ 0.25
9 | RGWY | ≤ 0.25
10 | YHNQ | ≤ 0.25
11 | GLYE | ≤ 0.25
12 | FVVY | ≤ 0.25
13 | LRYY | ≤ 0.25
14 | WDPP | ≤ 0.25
15 | WKHC | ≤ 0.25
16 | ITNW | ≤ 0.25
17 | LWVF | ≤ 0.25
18 | DEFD | ≤ 0.25
19 | MPAQ | ≤ 0.25
20 | GLSS | ≤ 0.25
21 | GYRG | ≤ 0.25
22 | EIPE | ≤ 0.25
23 | NWVA | ≤ 0.25
24 | HSPD | ≤ 0.25
25 | KGAG | ≤ 0.25
26 | KVHM | ≤ 0.25

Row | Variant | enrichment ratio
27 | IYPV | ≤ 0.25
28 | YQAN | 0.665
29 | DITF | ≤ 0.25
30 | HSVK | ≤ 0.25
31 | QSME | ≤ 0.25
32 | NSCS | ≤ 0.25
33 | KRPT | ≤ 0.25
34 | QIFM | ≤ 0.25
35 | MPKD | ≤ 0.25
36 | TTDP | ≤ 0.25
37 | QEER | ≤ 0.25
38 | NEKV | ≤ 0.25
39 | TKNW | ≤ 0.25
40 | VHTC | ≤ 0.25
41 | GDGW | ≤ 0.25
42 | EIIV | ≤ 0.25
43 | LIHK | ≤ 0.25
44 | YCPR | ≤ 0.25
45 | SRQL | ≤ 0.25
46 | HESC | ≤ 0.25
47 | KDEV | ≤ 0.25
48 | VGLI | 10.5
49 | IADY | ≤ 0.25
50 | VTTH | ≤ 0.25
51 | ALWK | ≤ 0.25
52 | WFFM | ≤ 0.25

Row | Variant | enrichment ratio
53 | MYAW | ≤ 0.25
54 | LGDV | ≤ 0.25
55 | RLRY | ≤ 0.25
56 | AQVK | ≤ 0.25
57 | HWMM | ≤ 0.25
58 | RDCK | ≤ 0.25
59 | NHPY | ≤ 0.25
60 | GAIG | ≤ 0.25
61 | ARRN | ≤ 0.25
62 | NDPP | ≤ 0.25
63 | FNME | ≤ 0.25
64 | GSMH | 3.55
65 | PGHK | ≤ 0.25
66 | NVYP | ≤ 0.25
67 | QGKN | ≤ 0.25
68 | GHTE | ≤ 0.25
69 | GAVK | ≤ 0.25
70 | QGAL | 15.6
71 | FPPQ | ≤ 0.25
72 | RYEG | ≤ 0.25
73 | DQEW | ≤ 0.25
74 | DVTW | ≤ 0.25
75 | KFAV | ≤ 0.25
76 | EEIH | ≤ 0.25
77 | LIPV | ≤ 0.25
78 | FIPY | ≤ 0.25

Row | Variant | enrichment ratio
79 | AANW | ≤ 0.25
80 | RDIL | ≤ 0.25
81 | FCDM | ≤ 0.25
82 | SYVG | 9.97
83 | ASIK | 1.16
84 | PLTC | ≤ 0.25
85 | FHMT | ≤ 0.25
86 | NNDH | ≤ 0.25
87 | NPLM | ≤ 0.25
88 | DEYA | ≤ 0.25
89 | RCWE | ≤ 0.25
90 | PPKG | ≤ 0.25
91 | PVTD | ≤ 0.25
92 | WITV | ≤ 0.25
93 | QTIQ | ≤ 0.25
94 | GGRM | ≤ 0.25
95 | EFIV | ≤ 0.25
96 | MSYM | 10.1
97 | DDLM | ≤ 0.25
98 | EAPD | ≤ 0.25
99 | REMH | ≤ 0.25
100 | PNDY | ≤ 0.25
101 | FDVK | ≤ 0.25
102 | QRTE | ≤ 0.25
103 | LVPN | ≤ 0.25
104 | HANP | ≤ 0.25

Row | Variant | enrichment ratio
105 | GIGG | ≤ 0.25
106 | NGAC | ≤ 0.25
107 | MSNT | ≤ 0.25
108 | NDSE | ≤ 0.25
109 | KQWH | ≤ 0.25
110 | IILW | ≤ 0.25
111 | AHLV | 1.12
112 | NRHK | ≤ 0.25
113 | KPRH | ≤ 0.25
114 | YKMM | 0.335
115 | EDDM | ≤ 0.25
116 | PGMD | ≤ 0.25
117 | FFRY | ≤ 0.25
118 | KFFP | ≤ 0.25
119 | TLLT | 0.528
120 | RVNV | ≤ 0.25
121 | TSWE | 10.9
122 | TSQT | 2.63
123 | RMQW | ≤ 0.25
124 | GTMD | ≤ 0.25
125 | RMKM | ≤ 0.25
126 | YPDQ | ≤ 0.25
127 | DHCI | ≤ 0.25
128 | QVDF | 15.1
129 | KQVW | ≤ 0.25
130 | TLNF | ≤ 0.25

Row | Variant | enrichment ratio
131 | RMLQ | ≤ 0.25
132 | LCLH | ≤ 0.25
133 | TISV | 12.8
134 | SHDG | 1.66
135 | YWWT | ≤ 0.25
136 | DTFA | 1.11
137 | QQME | ≤ 0.25
138 | HNMM | ≤ 0.25
139 | TNAW | ≤ 0.25
140 | DQWD | ≤ 0.25
141 | EGNN | ≤ 0.25
142 | ATVG | 6.86
143 | VTKT | ≤ 0.25
144 | SCYR | ≤ 0.25
145 | LWIQ | ≤ 0.25
146 | IQHL | ≤ 0.25
147 | AILM | 5.76
148 | LSEF | ≤ 0.25
149 | YNQL | ≤ 0.25
150 | FAWR | ≤ 0.25
151 | MIRE | ≤ 0.25
152 | TRSE | ≤ 0.25
153 | WDWE | ≤ 0.25
